Biological target: the molecule itself
Assay: cryo-EM structure; ClpB (150 μM) incubated with ATPγS (5 mM) and FITC-casein (150 µM) in 40 mM HEPES pH 7.5, 40 mM KCl, 10 mM MgCl2, 1 mM DTT; complex purified by SEC (Superose 6 Increase 3.2/300) before freezing

B1: Escherichia coli ClpB K476C hyperactive middle-domain variant (enzyme)
chain: not shown
notes: ClpB, Escherichia coli, with K476C in helix L2 of the middle domain; NTD, NBD1 and NBD2 are seen in the maps; Expressed from the pDS56/RBSII plasmid; Hexamer (protomers P1-P6) in the cryo-EM structures; source: E. coli M15, purified (Ni-NTA, HisTrap HP)
- stoichiometry N: 6
